Measurements as given in ChEMBL document CHEMBL5308541, “MAIP: An Open-Source Tool to Enrich High-Throughput Screening Output and Identify Novel, Druglike Molecules with Antimalarial Activity” (ACS Med Chem Lett, 2023).
Hit rate of the full screen: of about 150,000 compounds, about 540 (0.36%) showed an effect of 50% or more. The list shows a part of the results.

What follows are compounds tested on Plasmodium falciparum (assay: Primary screen in NF54 nanoGlo assay, in single point, at 2uM, 72h; a lower Z score goes with more inhibition). Details: timepoint 72 hour.
Type: functional, Erythrocyte

Compound	% Inhibition [%]	Z score
CN1CCN(CC2CCN(C(=O)CC3CC(C)(C)NC(C)(C)C3)CC2)CC1	2	-0.48
O=C(n1nnc2cc(Cl)c(Cl)cc21)C(F)(F)F	29	-5.11
C[C@@H](C(=O)N1CCC(C2(O)CC2)CC1)N1C(=O)c2cccc3cccc1c23	-4	0.62
CCc1csc([C@H]2CCCN(c3snc(C)c3C#N)C2)n1	-7	1.08
COc1ccc2oc(N[C@@H]3CCN(C(=O)c4onc5c4CCCC5)C3)nc2c1	-3	0.53
OCc1ccc(-c2c(-c3ccccc3)ncn2Cc2cccc3[nH]ccc23)o1	3	-0.48
CC(C)[C@@H](C#N)N1CCN(C(=O)CN2CCC(CN3CCCC3)CC2)CC1	-2	0.43
CN1CCN(c2cc(C(=O)NC[C@H]3CCCN3Cc3ccccc3)ccn2)CC1	0	0.05
Cc1nc(-c2ccncc2)nc(N[C@H]2CCCN(C(=O)N3CCCC3)C2)c1C	4	-0.62
CN1CCC(CN2CCN(C(=O)Nc3ccc4ncccc4c3)CC2)CC1	-4	0.75
CC1CCN(C[C@H]2CCCN(C(=O)c3cccc(-c4noc(C(F)(F)F)n4)c3)C2)CC1	14	-3
C[C@H](Nc1nc(N)c2ccccc2n1)c1cccc(-n2cncn2)c1	26	-4.57
c1ccc(Nc2ncc(-c3nc(CN4CCOCC4)no3)cn2)cc1	-7	1.07
Cc1csc(N2CCN(c3ncnc4[nH]ccc34)C[C@@H]2C)n1	-15	2.55
Cc1cc2occ(C(=O)Nc3cccnc3N3CCC(CO)CC3)c2cc1C	-6	0.96
Cc1nc(-c2ccccc2)sc1[C@H](C)N(C)Cc1ccon1	-10	2.14
Cc1ccc(Nc2nc(NCCO)nc3[nH]nnc23)cc1	2	-0.37
CN(CC1CCN(CCc2cccc(F)c2)CC1)C(=O)c1cnc2ccccc2c1	-7	1.28
c1ccc(OC2COCCC2NC2CCN(C3CCCC3)CC2)nc1 (stereo unspecified)	1	-0.19
CC(C)c1ccc2cc(C(=O)NCCN3CCS(=O)(=O)CC3)[nH]c2c1	3	-0.46
C[C@H]1CCCCN1C1CN(C(=O)c2cccc(-c3cccc(O)n3)c2)C1	-9	1.48

Compound	% Inhibition [%]	Z score
CCc1cc(NC(=O)c2cccc(NC(C)=O)c2C)n(C)n1	-15	2.3
Cn1ncc2c(N)nc(N3CCO[C@@H](Cc4ccccc4)C3)nc21	-4	0.62
N#Cc1c(-c2cnc(N3CCCCC3)nc2)cc(-c2ccc[nH]2)nc1N	-17	2.63
CN1CCC[C@@H]1CCNc1ncnc2cccc(F)c12	9	-1.43
O[C@H]1CCN(C2CCN(c3nc4cnccc4s3)CC2)C1	-3	0.49
O=C(Cc1cc(Cl)ccc1Cl)NC1(CO)Cc2ccccc2C1	-3	0.46
O=C(Nc1ccccc1OCCN1CCNCC1)N1C2CCC1CC1(CC1)C2	5	-1.01
c1ncc(-c2ccc(N[C@@H]3CNCC4(CCOCC4)C3)cc2)o1	-5	0.71
Cc1nccc(-c2cccc(NCc3ncc(-c4cccc(Cl)c4)o3)c2)n1	-1	0.25
c1ccc(-c2cc(OCC3CCN(c4nccn5nccc45)CC3)ncn2)cc1	-1	0.16
O=C(Cn1cnc(C2CC2)cc1=O)N1CC(n2c(C3CC3)nc3ccccc32)C1	-5	0.77
CN(C)S(=O)(=O)N1CCC(CNc2ncnc3ccc(Cl)cc23)CC1	-2	0.24
COc1ccc2c(CC(=O)N(C)C3CC4CCC(C3)N4C(=O)OC(C)(C)C)coc2c1 (stereo unspecified)	1	-0.24
Cc1ccc(Nc2ncc(-c3ccc(Cl)c(OC(F)(F)F)c3)cn2)cc1	-5	1
CC(C)N1C(=O)C[C@H](NC(=O)c2nn(-c3ccccc3)c3c2CCCCC3)C1=O	-2	0.35
Nc1nc(N[C@H]2CCN(CC(F)(F)F)C2)nc2ccccc12	-3	0.48
Cn1ccnc(NC[C@H]2CN(c3ncnc4[nH]ncc34)CCO2)c1=O	-4	0.91
COc1cccc([C@@H](Nc2ncc(Br)cn2)C(C)(C)C)c1	-9	1.51
N#Cc1cc2c(nc1NS(=O)(=O)Cc1cccc(C(F)(F)F)c1)CCCC2	-6	1.03
Cc1cc(CN2CCN(Cc3cccc(-c4ccncc4)c3)CC2)no1	-3	0.74
CCN(C)c1cc(NCCCN2CCC(C(N)=O)CC2)ncn1	-10	1.55

Compound	% Inhibition [%]	Z score
CC(C)(C)c1ccc(Cn2cc(-c3cnn(Cc4ccc(C(C)(C)C)cc4)c3)cn2)cc1	-3	0.7
COCCCCN1CCN(c2nccc(N3CC[C@H](O)C3)n2)CC1	1	-0.17
Cc1cc(-n2ccnc2)ccc1CN1CCC(N2CCO[C@@H](C)C2)CC1	2	-0.28
O[C@@H]1C[C@H]2CN(c3ncnc4[nH]ccc34)Cc3cccnc3N2C1	-3	0.49
Cc1csc(NC2CCN(C(=O)[C@@H]3COCCN3CC3CCC3)CC2)n1	-15	2.74
CC(C)N1CCN(C2CCN(C(=O)c3cccc(-c4ncn[nH]4)c3)CC2)CC1	-2	0.32
C1Cc2nc(C3CC3)nc(NC3COCC3N3CCOCC3)c2CCN1 (stereo unspecified)	1	-0.19
C[C@@H](c1ccc(-c2c[nH]nc2-c2ccncc2)cc1)N1CCCC1	-10	1.5
CC(NC1CCCN(c2cc(N3CCOCC3)ncn2)C1)C1CC(F)(F)C1 (stereo unspecified)	-1	0.22
Cc1cccc2c(CCNc3nc(N)nc4c3CCNCC4)c[nH]c12	10	-1.78
Cc1ccc2cccc(OCCNc3nc(N)nc4c3CCNC4)c2n1	3	-0.52
CCc1cc(NCc2ccnc(NC3CC3)c2)nc(-c2ccncc2)n1	-1	0.17
O=C(Nc1cc(N2CCNCC2)ccn1)[C@H]1CCCC2(CC2)C1	0	-0.04
CCCCc1c(C)nc(N)nc1NCc1nc(C)cc(C)n1	-4	0.88
O=C(C[C@H]1CCCC[C@@H]1O)Nc1cccc(Cl)c1O	7	-1
Cc1cc(=O)[nH]c2ccc(-c3cc(N)nc4[nH]ccc34)cc12	-4	0.73
CCOc1cccc(N2CCN(CC[C@H]3CCCN3C)CC2)n1	-4	0.74
O[C@@H]1CC(c2nnc[nH]2)C[C@@H]1CNc1cnc2cc(F)c(F)cc2n1 (stereo partly specified)	-11	2.33
CNC(=O)c1cc(Oc2cc(C)ccc2NC(=O)c2cccc3[nH]c(C(F)F)nc23)ccn1	9	-1.84
CN1CCN(C2(CNC(=O)Nc3cccc(-c4ccco4)c3)CCCC2)CC1	-4	0.66
C[C@@H](CCNC(=O)c1cccc(Cn2c(=O)c3cccn3c3cccnc32)c1)N1CCCCCC1	-11	1.91

Compound	% Inhibition [%]	Z score
Cc1ccnc(NC[C@]2(O)CCCNCC2)n1	0	-0.04
N#Cc1ccc(NC[C@H](O)c2ccc(OC(F)(F)F)cc2)nc1	-3	0.47
O=C(NCc1cccnc1)c1ccc(N2CCC(NCCc3nc(-c4ccccc4)cs3)CC2)cc1	-5	0.86
CN(C)CCCN(CCCn1cccn1)CC1CCN(C2Cc3ccccc3C2)CC1	16	-2.76
CNc1cc(C)nc2cc(OC)ccc12	-6	0.97
COc1ccc(CNCC2CCN(C(C)C)CC2)cc1OC[C@@H](O)CN1CCN(C)CC1	-4	0.62
COc1cccc(OC)c1CN1CCOC(CO)C1c1ccccc1 (stereo unspecified)	0	0.04
CNc1nc(C)cc(NCCc2nc3c(s2)CCCC3)n1	-2	0.29
c1cnnc(N2CCC(Nc3nc(C4CC4)nc4[nH]ccc34)CC2)c1	-12	2.05
Clc1ccc(NCCCN2CCCC2)cc1	0	-0.07
CCc1nc(C)c(CNC(=O)c2ccc3oc(C)cc3c2)s1	-4	0.76
O=C(C1CCN(C2CCN(Cc3nc4ccccc4[nH]3)CC2)CC1)N1CCCC1	-3	0.5
Cc1ccc2[nH]c3c(c2c1)CN(C(=O)NCCN1CCC(N(C)C)CC1)CC3	18	-3.63
CN(C)Cc1ccc([C@@H]2CCCN2c2cc(N3CCCCC3)ncn2)cc1	-9	1.58
CC1(C)CCCN(CCNC(=O)c2ccc3c(c2)C(=O)NCCO3)C1	-4	0.91
Cn1cc(-c2nc(-c3nc([C@H]4CN5CCCCC5CO4)no3)cs2)cn1 (stereo partly specified)	-23	4.1
Cn1cncc1C(=O)NC1CCC(Nc2nccc(-c3ccccn3)n2)C1 (stereo unspecified)	-17	2.9
COc1ccc2oc([C@H](C)NC(=O)c3nnc4ccccc4c3O)c(C)c2c1	-1	0.12
CN(C)CCN1CCCNc2ccccc21	-1	0.11
CCN1CCN(CCCNc2nc(C)ncc2Cl)CC1	-15	2.6
